Measurements taken from patent US20150210762A1 (Biogen, published 2015).

Tests used:
rat TMEM30A (CDC-50A) [1] = biological target: T1, rat TMEM30A (CDC-50A) (rat, UniProt Q6AY41 2-328); assay: flow cytometry on Hek293 cells transiently transfected with rat TMEM30A
T1 construct: whole, on cells; also called C6orf67
T1 sequence (looked up): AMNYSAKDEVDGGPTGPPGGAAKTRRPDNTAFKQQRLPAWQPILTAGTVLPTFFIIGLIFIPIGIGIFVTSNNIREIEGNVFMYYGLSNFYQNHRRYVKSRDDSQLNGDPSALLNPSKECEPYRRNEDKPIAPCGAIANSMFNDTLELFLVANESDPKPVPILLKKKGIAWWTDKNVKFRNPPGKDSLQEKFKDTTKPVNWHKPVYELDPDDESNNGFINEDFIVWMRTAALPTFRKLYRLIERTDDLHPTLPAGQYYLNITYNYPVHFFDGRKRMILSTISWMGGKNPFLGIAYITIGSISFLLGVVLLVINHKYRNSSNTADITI

rat TMEM30A (CDC-50A) [2] = biological target: T1, rat TMEM30A (CDC-50A); assay: flow cytometry, SV40-transformed against primary rat BBB endothelial cells
rat TMEM30A (CDC-50A) [3] = biological target: T1, rat TMEM30A (CDC-50A); assay: flow cytometry on primary rat BBB endothelial cells; 'Affinity (nM)'
rat TMEM30A (CDC-50A) [4] = biological target: T1, rat TMEM30A (CDC-50A); assay: flow cytometry, rat TMEM30A-transfected Hek293 cells against primary rat BBB endothelial cells
rat TMEM30A (CDC-50A) [5] = biological target: T1, rat TMEM30A (CDC-50A); assay: flow cytometry on SV40-transformed rat BBB endothelial cells (SV-ARBEC); 'Affinity (nM)', called EC50 in paragraph 227

B1: FC5-agly (T299A) hFc (pEAG2345): FC5 VHH fused to the N-terminus of human IgG1 aglycosyl Fc (Fc fusion)
chain: DVQLQASGGGLVQAGGSLRLSCAASGFKITHYTMGWFRQAPGKEREFVSRITWGGDNTFYSNSVKGRFTISRDNAKNTVYLQMNSLKPEDTADYYCAAGSTSTATPLRVDYWGKGTQVTVSSA[here human IgG1 Fc with changes without letters]
notes: Divalent, Fc-dimerised molecule expressed in DG44 CHO cells; The calculated Mwt of 78,725 fits two chains; also called FC5-Fc; FC5Fc
In the case of B1, the EC50 (rat TMEM30A (CDC-50A) [1]) is reported as roughly 1700 nM, the “fold weaker binding on SV40 transformed cell line against primary rat BBB endothelial cells” value (rat TMEM30A (CDC-50A) [2]) is reported as roughly 7 fold and the EC50 (rat TMEM30A (CDC-50A) [3]) is reported as 11 nM. The “fold weaker binding on rat TMEM30A transfected Hek293 cells against primary BBB endothelial cell line” value (rat TMEM30A (CDC-50A) [4]) was roughly 170 fold and the EC50 (rat TMEM30A (CDC-50A) [5]) was 75 nM.

B2: agly (T299A) hFc-FC5 (pEAG2403): FC5 VHH fused to the C-terminus of human IgG1 aglycosyl Fc (Fc fusion)
chain: [here human IgG1 Fc with changes without letters]GGGSDVQLQASGGGLVQAGGSLRLSCAASGFKITHYTMGWFRQAPGKEREFVSRITWGGDNTFYSNSVKGRFTISRDNAKNTVYLQMNSLKPEDTADYYCAAGSTSTATPLRVDYWGKGTQVTVSS
notes: Divalent, Fc-dimerised molecule expressed in DG44 CHO cells
Binder B2 has an EC50 (rat TMEM30A (CDC-50A) [3]) of 1700 nM.
